Variants at the floor of the assay are shown more often than the library holds them.
B1: TPR 5TU (parent)
chain: GGAUCUUCUCGAUCUAACAAAAAAGACAAAUCUGCCACAAAGCUUGAGAGCAUCUUCGGAUGCAGAGGCGGCAGCCUUCGGUGGCGCGAUAGCGCCAACGUUCUCAACUAUGACACGCAAAACGCGUGCUCCGUUGAAUGGAGUUUAUCAUG

Variants of: B1
Test: polymerase ribozyme fitness, log enrichment relative to wild type (log ratio); higher = more active; in vitro selection for triplet polymerase activity
Procedure, shortened: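 Fitness compares each genotype's enrichment to that of the wild type on a logarithmic scale, averaging replicates with inverse-variance weights. The logarithm is base 2. Enrichment came from Illumina sequencing of input and output libraries after one triplicate round of in vitro selection, which included frozen incubation at −7 °C, of PCR-built, transcribed mutant libraries of each subunit of a heterodimeric triplet polymerase ribozyme. Only genotypes with ≥10 input reads and ≥1 read per output were kept.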

Going from A16U A17U A40G G42U A52C C54G G68C C95G A121U to A16U A19G C57A, the “polymerase ribozyme fitness (log ratio)” value rises from no more than -4.2 to -2.39.

Compared with A16U A19U C103G, A16U A20G C51U G80U C87A A110U A150U is lower in “polymerase ribozyme fitness (log ratio)” value: -4.18 for the first, no more than -4.2 for the second.

A16U A20G C85A A138U and A16U A20U A23C A47G C99G U127G A138C A147C U148A C149A cannot be ordered by “polymerase ribozyme fitness (log ratio)” value: no more than -4.2 for the first, no more than -4.2 for the second.

A16U A20U G88A C95A and A16U A21G C85G C93A C116A A150U cannot be ordered by “polymerase ribozyme fitness (log ratio)” value: no more than -4.2 for the first, no more than -4.2 for the second.

A16U A21U A26C A29C A89U U101A A107C A120G and A16U A22C G42C G71A U146A cannot be ordered by “polymerase ribozyme fitness (log ratio)” value: no more than -4.2 for the first, no more than -4.2 for the second.

A16U A22G A30U U45A A49G G143C and A16U A22U C69A C85U G117U C118A G141A cannot be ordered by “polymerase ribozyme fitness (log ratio)” value: no more than -4.2 for the first, no more than -4.2 for the second.

A16U A22U G117A C132A U151G and A16U A23G G62A G86C C105U cannot be ordered by “polymerase ribozyme fitness (log ratio)” value: no more than -4.2 for the first, no more than -4.2 for the second.

A16U A23U A37U A41G G88C and A16U A24C G58C U61A G67C G68A U77G C96G U127G U139G cannot be ordered by “polymerase ribozyme fitness (log ratio)” value: no more than -4.2 for the first, no more than -4.2 for the second.

A16U A24G A26U G92U G94U U104G A106C G143A U145G and A16U A26G A52U C54U C99U cannot be ordered by “polymerase ribozyme fitness (log ratio)” value: no more than -4.2 for the first, no more than -4.2 for the second.

A16U A28C A52G C87A U102G A150C and A16U A28U A37C G42U U56A C95A cannot be ordered by “polymerase ribozyme fitness (log ratio)” value: no more than -4.2 for the first, no more than -4.2 for the second.

A16U A29C C35U A41C G86A A98U C114U G141U U145G and A16U A29U G48U G92A C95U G152U cannot be ordered by “polymerase ribozyme fitness (log ratio)” value: no more than -4.2 for the first, no more than -4.2 for the second.

A16U A30C A47G G58A U111A and A16U A30C A52G C96G C103G U144G cannot be ordered by “polymerase ribozyme fitness (log ratio)” value: no more than -4.2 for the first, no more than -4.2 for the second.

A16U A30C U44A G88A C105U U109A and A16U A30G C35U U55C C79A U90G C93U cannot be ordered by “polymerase ribozyme fitness (log ratio)” value: no more than -4.2 for the first, no more than -4.2 for the second.

A16U A37U C75U U148G and A16U A37U C76G U82G A89G A91G G143U cannot be ordered by “polymerase ribozyme fitness (log ratio)” value: no more than -4.2 for the first, no more than -4.2 for the second.

A16U A37U U56C A91U U104G and A16U A39G A89C C95U G152C cannot be ordered by “polymerase ribozyme fitness (log ratio)” value: no more than -4.2 for the first, no more than -4.2 for the second.

A16U A39U A73G U77G C93A and A16U A39U U55A U56A G86A cannot be ordered by “polymerase ribozyme fitness (log ratio)” value: no more than -4.2 for the first, no more than -4.2 for the second.

A16U A40G U44A G71C C85A G141A G143U and A16U A41C G62A G67A C87U A107G G141C G152A cannot be ordered by “polymerase ribozyme fitness (log ratio)” value: no more than -4.2 for the first, no more than -4.2 for the second.

A16U A41G A49G C72U C85U G128U and A16U A52U G74A C87A A119U U148G cannot be ordered by “polymerase ribozyme fitness (log ratio)” value: no more than -4.2 for the first, no more than -4.2 for the second.

A16U A60C U61A A66C and A16U A60U C103A C105A cannot be ordered by “polymerase ribozyme fitness (log ratio)” value: no more than -4.2 for the first, no more than -4.2 for the second.

Going from A16U A106G to A16U C18G U53A C85G U109G A120G, the “polymerase ribozyme fitness (log ratio)” value falls from -1.8 to no more than -4.2.

A16U C27A A28U C54U C75U G92C G136U and A16U C32U A66G C75U G92U C99A C125G G136U G141U cannot be ordered by “polymerase ribozyme fitness (log ratio)” value: no more than -4.2 for the first, no more than -4.2 for the second.

A16U C35A A47G G74A G80C G92U U135A and A16U C35G C36U C95U cannot be ordered by “polymerase ribozyme fitness (log ratio)” value: no more than -4.2 for the first, no more than -4.2 for the second.

A16U C35U G58A C96G C114U and A16U C38U A60C G80U A97G cannot be ordered by “polymerase ribozyme fitness (log ratio)” value: no more than -4.2 for the first, no more than -4.2 for the second.

A16U C43A C69A C85A C103A G126U U151G and A16U C43U U77G C85A G117A cannot be ordered by “polymerase ribozyme fitness (log ratio)” value: no more than -4.2 for the first, no more than -4.2 for the second.

A16U C51A C85G C96A A106G and A16U C51U A60G A89U C93U G117U A121C A138G G141C cannot be ordered by “polymerase ribozyme fitness (log ratio)” value: no more than -4.2 for the first, no more than -4.2 for the second.

Going from A16U C57A to A16U C57A C99G U104C, the “polymerase ribozyme fitness (log ratio)” value falls from -1.96 to -3.73.

A16U C57G G67U G86U A91G and A16U C57G G68A G81A C96G A137G G143C U144A cannot be ordered by “polymerase ribozyme fitness (log ratio)” value: no more than -4.2 for the first, no more than -4.2 for the second.

Compared with A16U C69A U145G, A16U C69U G88C C108G is lower in “polymerase ribozyme fitness (log ratio)” value: -3.75 for the first, no more than -4.2 for the second.

A16U C75A C93U A97U A122G G141C and A16U C79U G86A A91U cannot be ordered by “polymerase ribozyme fitness (log ratio)” value: no more than -4.2 for the first, no more than -4.2 for the second.

Compared with A16U C93U G100U A115G, A16U C116A is higher in “polymerase ribozyme fitness (log ratio)” value: no more than -4.2 for the first, -0.257 for the second.

A16U C131A U135C and A16U G34A G70A C95G A97C U101G C105U G140C cannot be ordered by “polymerase ribozyme fitness (log ratio)” value: no more than -4.2 for the first, no more than -4.2 for the second.

A16U G42C G68A C72G C87G G126A and A16U G42U U45C A73G U78A G92A C123A G143C cannot be ordered by “polymerase ribozyme fitness (log ratio)” value: no more than -4.2 for the first, no more than -4.2 for the second.

A16U G50A A52C U53G U56A C75U C99G C103A and A16U G50A C95G C118G cannot be ordered by “polymerase ribozyme fitness (log ratio)” value: no more than -4.2 for the first, no more than -4.2 for the second.

A16U G50A G92A C103G G152A and A16U G50A U55G C95G cannot be ordered by “polymerase ribozyme fitness (log ratio)” value: no more than -4.2 for the first, no more than -4.2 for the second.

A16U G80A C132G and A16U G86A A91U A106G C108U C129A cannot be ordered by “polymerase ribozyme fitness (log ratio)” value: no more than -4.2 for the first, no more than -4.2 for the second.

Going from A16U G94C to A16U U31A A64U C85U A91G C131A, the “polymerase ribozyme fitness (log ratio)” value falls from -2.55 to no more than -4.2.

A16U U31A C57A G88A and A16U U31G G50U C75U G84A U148G cannot be ordered by “polymerase ribozyme fitness (log ratio)” value: no more than -4.2 for the first, no more than -4.2 for the second.

A16U U31G G59C C87G U135C G136C U144A and A16U U33A G42A C93U G140A cannot be ordered by “polymerase ribozyme fitness (log ratio)” value: no more than -4.2 for the first, no more than -4.2 for the second.

A16U U33G G80C U90C C93G A120U A142U and A16U U45G G94A A107G C118A A150G cannot be ordered by “polymerase ribozyme fitness (log ratio)” value: no more than -4.2 for the first, no more than -4.2 for the second.

A16U U53A C79G U82G C118U G136C and A16U U55A A91G G117U cannot be ordered by “polymerase ribozyme fitness (log ratio)” value: no more than -4.2 for the first, no more than -4.2 for the second.

Going from A16U U55G C87U to A16U U56A C96A, the “polymerase ribozyme fitness (log ratio)” value falls from -2.67 to -3.23.

A16U U82G C95U U135G A137G G140C and A16U U90A A107U C149G cannot be ordered by “polymerase ribozyme fitness (log ratio)” value: no more than -4.2 for the first, no more than -4.2 for the second.

— the RNAGym collection of RNA variant scans (doi:10.1073/pnas.2313332121)
